Experimental findings from the supplement of paper PMC9446081 are described below.

Molecules are shown by their SMILES. The whole screen tested about 39,000 compounds, of which about 220 (0.56%) showed activity. This is one part of the list.
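Also: static incubation at 37 °C against the wild-type strain, values averaged over two biological replicates.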

The test system of the assay is Escherichia coli K-12 BW25113. The experiment in a line: relative growth (OD600 normalised to plate interquartile mean) (fraction); higher = less growth inhibition, active = 0.2 or less. The settings on record: 50 µM; LB; incubation time: overnight (16-24 h).
Consider `CC(C)NC(=O)N(C)C[C@@H]1OCc2cnnn2CCCC(=O)N([C@H](C)CO)C[C@@H]1C`, for which the relative growth is inactive: 0.996. `COCC(=O)Nc1ccc2c(c1)C(=O)N(C)C[C@H](OC)[C@@H](C)CN(Cc1ccccc1OC)[C@@H](C)CO2`: the relative growth was inactive: 1.

With `Cc1noc(C)c1S(=O)(=O)N(C)C[C@H]1Oc2ccc(NC(=O)NC(C)C)cc2CC(=O)N([C@@H](C)CO)C[C@@H]1C`, the relative growth is inactive: 1.02. In the case of `C[C@@H]1CN([C@H](C)CO)C(=O)c2c(c3ccccc3n2C)-c2ccccc2CO[C@H]1CN(C)C(=O)Nc1ccc2c(c1)OCO2`, the relative growth was inactive: 1.01. On to `C[C@@H]1CN([C@@H](C)CO)C(=O)c2cccc(NC(=O)CCCCCC(=O)Nc3ccccc3N)c2O[C@H]1CN(C)S(C)(=O)=O`, for which the relative growth was inactive: 0.99. Under `COc1ccc(-c2cnc3c(c2)C(=O)N([C@@H](C)CO)C[C@@H](C)[C@@H](CN(C)C(=O)C2CCOCC2)O3)cc1` stands inactive: 1.02. Consider `O=C(C[C@H]1C=C[C@H](NC(=O)c2cccc(F)c2)[C@@H](CO)O1)NCCN1CCCC1`, for which the relative growth is inactive: 1.01.

Turning to `CC(C)NC(=O)Nc1cccc2c1O[C@H](CN(C)S(=O)(=O)c1cn(C)cn1)[C@@H](C)CN([C@@H](C)CO)C2=O`, the relative growth was inactive: 0.991. In the case of `COc1cc([C@@H](O)C(=O)O)ccc1O`, the relative growth was inactive: 0.972. On to `C[C@H]1CN([C@@H](C)CO)C(=O)c2cccc(NS(=O)(=O)c3ccccc3)c2O[C@@H]1CN(C)Cc1ccc(-c2ccccc2)cc1`, for which the relative growth is inactive: 1.02.

`CC=Cc1ccc2n(c1=O)C[C@H]1[C@H](CO)[C@@H](C(=O)NCC)[C@@H]2N1S(=O)(=O)c1cn(C)cn1`: the relative growth was inactive: 0.991. On to `Cc1noc(C)c1NC(=O)Nc1ccc2c(c1)C(=O)N([C@@H](C)CO)C[C@H](C)[C@H](CN(C)C(=O)C1CCCCC1)OCCCC[C@H](C)O2`, for which the relative growth is inactive: 1.03. Then `C[C@@H]1CN([C@@H](C)CO)S(=O)(=O)c2ccc(C#Cc3ccccc3F)cc2O[C@@H]1CN(C)CC1CC1`, with inactive: 0.993; and `CCOC(=O)[C@@](C)(N)Cc1ccc(O)c(O)c1`, with inactive: 1.01; and `Cl.c1ccc(C2CN3CCSC3=N2)cc1` (centres undefined), with inactive: 1.03. Then `C[C@H]1CN([C@@H](C)CO)S(=O)(=O)c2ccc(C#Cc3ccc(F)cc3)cc2O[C@@H]1CN(C)S(=O)(=O)c1cn(C)cn1`, with inactive: 1.04; and `CO[C@H]1CN(C)C(=O)c2cc(NC(=O)Nc3cccc(F)c3)ccc2OC[C@@H](C)N(C(=O)Nc2c(C)noc2C)C[C@H]1C`, with inactive: 0.978; and `Cc1noc(C)c1S(=O)(=O)Nc1cccc2c1O[C@H](CN(C)C(=O)Nc1ccc3c(c1)OCO3)[C@H](C)CN([C@H](C)CO)C2=O`, with inactive: 1.01. Then `O=C(C[C@@H]1CC[C@@H]2[C@H](COC[C@H](O)CN2C(=O)c2ccc3c(c2)OCO3)O1)NCCN1CCCCC1`, with inactive: 0.991. For the compound `O=C(C[C@H]1C[C@H]2c3cc(NC(=O)Cc4ccncc4)ccc3O[C@H]2[C@@H](CO)O1)NCCc1ccccc1`, the relative growth was inactive: 1.02. Under `Cc1noc(C)c1NC(=O)Nc1ccc2c(c1)CC(=O)N([C@H](C)CO)C[C@H](C)[C@H](CN(C)C(=O)Nc1ccc(C(F)(F)F)cc1)O2` stands inactive: 0.986; under `CSc1nc(C)cc(NC(N)=O)n1`, inactive: 0.972. For `C[C@@H]1CN([C@@H](C)CO)C(=O)Cc2cc(NS(=O)(=O)c3cn(C)cn3)ccc2O[C@@H]1CN(C)S(=O)(=O)c1cn(C)cn1`, the relative growth is inactive: 1.05. Take `C[C@@H]1CN([C@H](C)CO)C(=O)c2cc(NC(=O)CCC(F)(F)F)ccc2O[C@@H](C)CCCCO[C@H]1CN(C)Cc1ccc(Cl)c(Cl)c1`: the relative growth is inactive: 0.936. Regarding `C[C@H]1CCCCO[C@@H](CN(C)C(=O)Nc2ccccc2)[C@@H](C)CN([C@@H](C)CO)C(=O)c2cc(NC(=O)C3CCCCC3)ccc2O1`, the relative growth was inactive: 1.04.

Consider `COc1cc(-c2coc3cc(O[C@@H]4O[C@H](CO)[C@@H](O)[C@H](O)[C@H]4O)c(OC)c(O)c3c2=O)cc(O)c1OC`, for which the relative growth was inactive: 1.02. As to `CCCNC(=O)[C@@]1(Sc2ccc(C)cc2)CC(=O)N(C2CCCCC2)[C@@H]1c1ccc(CO)cc1I`, the relative growth was inactive: 0.968.

For `CC(C)NC(=O)Nc1ccc2c(c1)C(=O)N([C@H](C)CO)C[C@@H](C)[C@@H](CN(C)Cc1ccccc1)OCCCC[C@@H](C)O2`, the relative growth was inactive: 1.04. Turning to `COc1ccc(S(=O)(=O)N(C)C[C@H]2Oc3ccc(NS(=O)(=O)c4ccccc4)cc3C(=O)N([C@H](C)CO)C[C@H]2C)cc1`, the relative growth is inactive: 1.03.

For the compound `COc1ccc(S(=O)(=O)N(C)C[C@@H]2Oc3ccc(NC(=O)Nc4cccc(C(F)(F)F)c4)cc3CC(=O)N([C@@H](C)CO)C[C@@H]2C)cc1Cl`, the relative growth is inactive: 0.997. Turning to `Cc1noc(C)c1NC(=O)Nc1ccc2c(c1)C(=O)N([C@H](C)CO)C[C@@H](C)[C@@H](CN(C)C(=O)Nc1ccc3c(c1)OCO3)OCCCC[C@@H](C)O2`, the relative growth is inactive: 0.978. Consider `COc1ccccc1S(=O)(=O)N[C@H]1CC[C@H](CCNC(=O)C2CC2)O[C@@H]1CO`, for which the relative growth is inactive: 1.01.

With `CC(C)C#Cc1ccc2c(c1)O[C@H](CN(C)C(=O)c1cccc(F)c1)[C@@H](C)CN([C@@H](C)CO)S2(=O)=O`, the relative growth is inactive: 0.976. Under `Cc1cc(C(=O)Nc2cccc3c2O[C@@H](CN(C)S(=O)(=O)c2ccc(F)cc2)[C@@H](C)CN([C@@H](C)CO)C3=O)n(C)n1` stands inactive: 1.02. `C[C@@H]1CN([C@H](C)CO)C(=O)c2cc(C#CC(C)(C)O)cnc2O[C@H]1CN(C)Cc1cccc(C(=O)O)c1`: the relative growth was inactive: 1.01. Then `COC(=O)[C@H](Cc1ccccc1)NC(=O)[C@@H](N)CC(=O)O`, with inactive: 0.989; and `COc1ccc(S(=O)(=O)N(C)C[C@H]2OCc3cnnn3CCCC(=O)N([C@@H](C)CO)C[C@@H]2C)cc1`, with inactive: 1.02; and `C=CCn1c(=O)n([C@H]2O[C@@H](CO)[C@@H](O)[C@@H]2O)c2[nH]c(N)nc(=O)c21`, with inactive: 0.989.

For the compound `C[C@@H]1CN([C@H](C)CO)C(=O)c2cc(NC(=O)Cn3cnnn3)ccc2O[C@@H]1CN(C)Cc1ccc(-c2ccccc2)cc1`, the relative growth is inactive: 1.
